Laboratory results published in the supplement of paper PMC9046079.
Counter-ions that a name gives are not always drawn. ± gives the standard deviation of the averaged measurements. The list shows a part of the results.

Tests used:
[1] = tested on: murine small intestinal organoids (ENR+CD Paneth differentiation); experiment: cellular ATP (CellTiter-Glo 3D) relative to plate median (log10 fold change); higher = more viable cells; settings: 6 d
[2] = tested on: murine small intestinal organoids (ENR+CD Paneth differentiation); experiment: carbachol-stimulated secreted lysozyme activity relative to plate median (log10 fold change); higher = more Paneth cell lysozyme secretion; settings: 6 d, carbachol 10 µM
[3] = tested on: murine small intestinal organoids (ENR+CD Paneth differentiation); experiment: basal (non-stimulated) secreted lysozyme activity relative to plate median (log10 fold change); higher = more Paneth cell lysozyme secretion; settings: 6 d
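For basal (non-stimulated) secreted lysozyme activity relative to plate median in this document: ISC-enriched organoid precursors grown as 2.5D pseudo-monolayer on Matrigel, compound given on day 0 and day 3, plate values LOESS-normalized before median fold change, three murine donors.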
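For cellular ATP (CellTiter-Glo 3D) relative to plate median in this document: 2.5D pseudo-monolayer culture of ISC-enriched organoids partly embedded atop Matrigel, compound added on day 0 and again on day 3, per-plate LOESS correction before median fold change.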

Structure (SMILES) | cellular ATP (log10) ([1]; 0.08 µM) | cellular ATP (log10) ([1]; 0.4 µM) | cellular ATP (log10) ([1]; 2 µM) | cellular ATP (log10) ([1]; 10 µM) | carbachol-stimulated secreted lysozyme activity (log10) ([2]; 0.08 µM) | carbachol-stimulated secreted lysozyme activity (log10) ([2]; 0.4 µM) | carbachol-stimulated secreted lysozyme activity (log10) ([2]; 2 µM) | carbachol-stimulated secreted lysozyme activity (log10) ([2]; 10 µM) | basal (log10) ([3]; 0.08 µM) | basal (log10) ([3]; 0.4 µM) | basal (log10) ([3]; 2 µM) | basal (log10) ([3]; 10 µM)
COc1ccc(CC(C)NCC(O)c2ccc(O)c(NC=O)c2)cc1 (centres undefined) [Formoterol Hemifumarate] | 0.294 ± 0.2 | 0.265 ± 0.13 | 0.242 ± 0.36 | 0.253 ± 0.2 | 0.208 ± 0.011 | 0.261 ± 0.12 | 0.0703 ± 0.027 | -0.026 ± 0.13 | 0.145 ± 0.034 | 0.0733 ± 0.074 | 0.0482 ± 0.037 | 0.0131 ± 0.12
C[C@@H]1CN(CC(=O)Nc2ccc3c(c2)Cc2cccc(-c4cc(=O)cc(N5CCOCC5)o4)c2S3)C[C@H](C)O1 | 0.114 ± 0.12 | 0.0392 ± 0.16 | 0.121 ± 0.51 | -0.522 ± 0.4 | 0.326 ± 0.026 | 0.102 ± 0.21 | -0.107 ± 0.059 | -0.286 ± 0.17 | 0.0419 ± 0.079 | -0.00138 ± 0.028 | -0.0152 ± 0.089 | -0.0884 ± 0.097
CCCC(=O)Nc1cccc(NC(=O)c2ccccc2Br)c1 | 0.0858 ± 0.13 | 0.028 ± 0.14 | 0.0656 ± 0.087 | -0.0351 ± 0.15 | -0.0278 ± 0.093 | -0.0608 ± 0.12 | -0.0159 ± 0.043 | -0.127 ± 0.16 | 0.0181 ± 0.097 | -0.0272 ± 0.05 | 0.0371 ± 0.034 | -0.0567 ± 0.076
COc1c(C)c(C(=O)c2ccc(N)c(C(=O)O)c2)n2ccccc12 | 0.102 ± 0.034 | 0.131 ± 0.38 | 0.0984 ± 0.1 | -0.0636 ± 0.078 | 0.0136 ± 0.2 | 0.123 ± 0.078 | 0.0612 ± 0.041 | -0.0493 ± 0.075 | 0.0676 ± 0.14 | 0.0751 ± 0.023 | 0.0491 ± 0.028 | 0.0247 ± 0.23
Nc1nc(CC(=O)Nc2ccc(CCNC[C@H](O)c3ccccc3)cc2)cs1 [Mirabegron] | 0.029 ± 0.087 | -0.335 ± 0.67 | 0.0194 ± 0.081 | -0.0515 ± 0.17 | 0.116 ± 0.1 | 0.0385 ± 0.015 | -0.0472 ± 0.045 | 0.0311 ± 0.0096 | 0.138 ± 0.074 | -0.0298 ± 0.037 | -0.0345 ± 0.023 | 0.0221 ± 0.14
Cc1c(-c2ccc(O)cc2)n(Cc2ccc(OCCN3CCCCCC3)cc2)c2ccc(O)cc12 [Bazedoxifene HCl] | 0.422 ± 0.066 | 0.365 ± 0.044 | -0.78 ± 0.82 | -1.15 ± 0.61 | 0.0789 ± 0.023 | 0.124 ± 0.03 | -0.194 ± 0.016 | -0.415 ± 0.047 | 0.159 ± 0.23 | 0.0263 ± 0.059 | -0.146 ± 0.02 | -0.28 ± 0.13
COc1cc(CCc2cc(NC(=O)c3ccc(N4CC(C)NC(C)C4)cc3)n[nH]2)cc(OC)c1 (centres undefined) | 0.16 ± 0.11 | 0.101 ± 0.14 | -0.00995 ± 0.29 | -0.0615 ± 0.22 | 0.14 ± 0.082 | 0.0164 ± 0.18 | 0.0476 ± 0.15 | -0.0898 ± 0.029 | 0.0999 ± 0.057 | 0.0594 ± 0.11 | 0.068 ± 0.072 | -0.0381 ± 0.051
CN1CCN(c2nc(C3=C(c4c[nH]c5ccccc45)C(=O)NC3=O)c3ccccc3n2)CC1 [Sotrastaurin] | 0.086 ± 0.1 | -0.106 ± 0.16 | -0.247 ± 0.28 | -0.25 ± 0.4 | 0.0254 ± 0.13 | 0.0637 ± 0.19 | 0.0022 ± 0.17 | -0.0414 ± 0.3 | 0.0209 ± 0.091 | -0.00646 ± 0.13 | -0.0385 ± 0.092 | -0.0793 ± 0.15
O=C(NCCN1CCOCC1)c1ccc(Cl)cc1 | 0.146 ± 0.4 | 0.106 ± 0.53 | 0.116 ± 0.35 | 0.0419 ± 0.2 | 0.0471 ± 0.18 | -0.0121 ± 0.064 | -0.0597 ± 0.084 | 8.09e-05 ± 0.042 | 0.0752 ± 0.18 | 0.121 ± 0.22 | 0.00127 ± 0.12 | -0.0279 ± 0.067
OCCn1cc(-c2cnc3nnn(Cc4ccc5ncccc5c4)c3n2)cn1 | 0.136 ± 0.21 | 0.258 ± 0.28 | -0.051 ± 0.19 | 0.116 ± 0.24 | 0.091 ± 0.048 | 0.253 ± 0.23 | 0.0617 ± 0.12 | 0.167 ± 0.17 | 0.0853 ± 0.03 | 0.161 ± 0.17 | 0.122 ± 0.057 | 0.0709 ± 0.035
Nc1nc(NCCNc2ncc(-n3ccnc3)c(-c3ccc(Cl)cc3Cl)n2)ccc1[N+](=O)[O-] | 0.0922 ± 0.27 | 0.0796 ± 0.17 | 0.0395 ± 0.25 | -0.0518 ± 0.22 | 0.107 ± 0.24 | -0.11 ± 0.092 | -0.112 ± 0.12 | -0.385 ± 0.043 | 0.0522 ± 0.18 | -0.0533 ± 0.064 | -0.128 ± 0.018 | -0.218 ± 0.095
CCN(Cc1ccncc1)C(=O)C(CO)c1ccccc1 (centres undefined) [Tropicamide] | 0.146 ± 0.39 | -0.141 ± 0.052 | 0.25 ± 0.3 | 0.0544 ± 0.3 | -0.127 ± 0.14 | -0.0186 ± 0.095 | 0.102 ± 0.023 | 0.0435 ± 0.044 | -0.0836 ± 0.097 | 0.0681 ± 0.11 | 0.14 ± 0.22 | 0.032 ± 0.075
Cc1cccc(-c2nn3c(c2-c2ccnc4ccc(C(N)=O)cc24)CCC3)n1 | 0.0913 ± 0.02 | 0.137 ± 0.21 | 0.0172 ± 0.19 | 0.0946 ± 0.12 | 0.158 ± 0.088 | 0.226 ± 0.11 | 0.0952 ± 0.042 | 0.221 ± 0.15 | 0.227 ± 0.27 | 0.14 ± 0.13 | 0.0918 ± 0.045 | 0.162 ± 0.07
C1=N/C2=N/c3ccc(OCCN4CCCC4)c(c3)COC/C=C/COCc3cccc(c3)C(=C1)N2 [Pacritinib (SB1518)] | -0.00582 ± 0.19 | 0.0987 ± 0.23 | -0.235 ± 0.19 | -1.28 ± 0.55 | 0.0245 ± 0.11 | -0.0861 ± 0.049 | -0.377 ± 0.03 | -0.549 ± 0.024 | 0.0914 ± 0.068 | -0.0343 ± 0.095 | -0.219 ± 0.13 | -0.275 ± 0.11
CNC(=O)c1cc(Oc2ccc(NC(=O)Nc3ccc(Cl)c(C(F)(F)F)c3)cc2)ccn1 [Sorafenib] | 0.0432 ± 0.2 | 0.0517 ± 0.25 | -0.229 ± 0.55 | 0.0905 ± 0.077 | 0.0356 ± 0.16 | 0.147 ± 0.11 | -0.00826 ± 0.014 | -0.018 ± 0.0091 | 0.0281 ± 0.11 | 0.184 ± 0.24 | -0.04 ± 0.0078 | 0.0743 ± 0.13
Cc1[nH]c2ccccc2c1CCNC(=O)c1cccs1 | 0.202 ± 0.1 | -0.00432 ± 0.24 | -0.201 ± 0.31 | -0.169 ± 0.42 | 0.138 ± 0.054 | -0.0482 ± 0.11 | 0.0843 ± 0.47 | -0.162 ± 0.1 | 0.0386 ± 0.13 | -0.0491 ± 0.052 | -0.0658 ± 0.085 | -0.108 ± 0.017
Cc1ccc(S(=O)(=O)n2c(N)nc3ccccc32)cc1 [ML130 (Nodinitib-1)] | 0.0463 ± 0.051 | 0.0514 ± 0.11 | 0.119 ± 0.11 | 0.156 ± 0.086 | -0.0332 ± 0.059 | 0.0436 ± 0.051 | 0.0728 ± 0.038 | -0.0633 ± 0.0079 | 0.0283 ± 0.05 | 0.00699 ± 0.078 | 0.173 ± 0.27 | 0.021 ± 0.026
